From article PMC10214851 come the findings set out here.

Assay in all cases: co-IP; isolated yeast mitochondria lysed in IP buffer (50 mM Tris-HCl pH 7.4, 50 mM NaCl) with 1% (w/v) digitonin and 1 mM PMSF; cleared lysate on anti-HA agarose beads for 2 h; bound proteins eluted with SDS sample buffer, SDS-PAGE and immunoblotting; baits also in Δom14, Δpor1 and Δmic60 backgrounds
Assay [1] concerns the target T1, Cqd1–3xHA (S. cerevisiae) (UniProt Q02981).
T1 sequence: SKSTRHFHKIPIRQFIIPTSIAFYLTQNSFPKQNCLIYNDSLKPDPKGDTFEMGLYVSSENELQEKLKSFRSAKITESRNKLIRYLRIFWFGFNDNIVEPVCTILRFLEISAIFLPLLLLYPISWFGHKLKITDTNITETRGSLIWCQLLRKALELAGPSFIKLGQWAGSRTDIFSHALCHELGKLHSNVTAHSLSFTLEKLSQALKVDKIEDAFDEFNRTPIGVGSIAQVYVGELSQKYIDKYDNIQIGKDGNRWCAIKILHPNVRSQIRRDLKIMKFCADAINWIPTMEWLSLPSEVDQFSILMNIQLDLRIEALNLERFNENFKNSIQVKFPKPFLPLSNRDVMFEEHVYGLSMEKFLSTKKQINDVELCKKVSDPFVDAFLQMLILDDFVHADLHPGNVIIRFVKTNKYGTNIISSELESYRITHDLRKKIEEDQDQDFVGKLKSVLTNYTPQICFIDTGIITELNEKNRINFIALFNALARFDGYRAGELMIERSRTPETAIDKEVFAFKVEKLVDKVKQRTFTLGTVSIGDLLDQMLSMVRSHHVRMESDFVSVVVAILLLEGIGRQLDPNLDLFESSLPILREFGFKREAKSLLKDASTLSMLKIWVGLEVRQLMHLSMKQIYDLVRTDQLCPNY

Assay [2] addresses T2, Mic60–3xHA (S. cerevisiae) (UniProt P36112).
T2 sequence: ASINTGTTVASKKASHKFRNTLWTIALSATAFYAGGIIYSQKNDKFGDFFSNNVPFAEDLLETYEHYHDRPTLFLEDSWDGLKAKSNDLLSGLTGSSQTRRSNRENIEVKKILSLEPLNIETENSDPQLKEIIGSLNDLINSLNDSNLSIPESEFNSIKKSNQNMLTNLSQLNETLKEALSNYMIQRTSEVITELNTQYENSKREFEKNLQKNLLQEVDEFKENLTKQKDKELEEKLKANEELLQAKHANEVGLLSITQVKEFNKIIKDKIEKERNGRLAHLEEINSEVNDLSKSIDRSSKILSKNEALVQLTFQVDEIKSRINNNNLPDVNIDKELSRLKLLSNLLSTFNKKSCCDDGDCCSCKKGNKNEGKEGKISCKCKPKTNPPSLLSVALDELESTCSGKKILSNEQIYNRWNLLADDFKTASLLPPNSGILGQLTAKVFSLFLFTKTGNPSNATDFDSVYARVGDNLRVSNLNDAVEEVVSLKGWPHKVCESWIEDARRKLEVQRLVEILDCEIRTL

For assay [3], the target named is Por1–3xHA (S. cerevisiae) (UniProt P04840).
Assay [4] deals with T3, Mic10–3xHA (S. cerevisiae) (UniProt Q96VH5).
T3 sequence: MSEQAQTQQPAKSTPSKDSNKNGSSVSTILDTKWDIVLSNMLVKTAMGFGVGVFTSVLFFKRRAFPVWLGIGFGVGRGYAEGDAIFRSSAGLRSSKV

Assay [5] deals with T4, Om14–3xHA (S. cerevisiae) (UniProt P38325).
T4 sequence: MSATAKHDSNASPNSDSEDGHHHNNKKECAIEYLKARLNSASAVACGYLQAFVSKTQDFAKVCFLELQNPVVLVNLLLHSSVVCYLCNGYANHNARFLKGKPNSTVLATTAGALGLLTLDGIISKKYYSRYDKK

These are yes or no findings as the source states them, for the method shown. In cells and extracts the contact can be indirect. Some binding calls cover weakened binding; strength is not graded here.

B1: Mic10 (protein, UniProt Q96VH5 1-97)
chain: T3 sequence
Take B1: the binding result in assay [1] was “no binding”.

B2: Cqd1–3xHA (protein, UniProt Q02981 16-657)
chain: T1 sequence
As for B2, in assay [1], the binding entry is “binds”.

B3: Cqd1 (protein, UniProt Q02981 16-657)
chain: T1 sequence
B3: the binding entry in assay [2] was “no binding”; in assay [3], “binds”; in assay [4], “no binding”; in assay [5] it was “binds”.

B4: Mic60 (protein, UniProt P36112 18-540)
chain: T2 sequence
B4: in assay [1], the binding result is “no binding”.

B5: Om45 (protein, UniProt P16547 1-393)
chain: MSSRIIVGSAALAAAITASIMVREQKAKGQRREGNVSAYYNGQEYGSSAPPQLGKLHNIKQGIKEDALSLKDALLGVSQKAREEAPKVTKRVISPEEDAQTRKQLGQKAKDSSSQSIFNWGFSEAERRKAIAIGEFDTAKKRFEEAVDRNEKELLSTVMREKKAALDRASIEYERYGRARDFNELSDKLDQQERNSNPLKRLLKNNTGDANTEEAAARSVQGWGDTAQEFGREELEEAKRNASSEPSEAQKRLDELKKIKEKGWFGYNKGEQSEQQIAERVARGLEGWGETAAQLSKDEMDDLRWNYENSKKQLDKNVSDAMDSLSKAKEDLKQYGSHWWSGWTSKVDNDKQALKDEAQKKYDEALKKYDEAKNKFKEWNDKGDGKFWSSKKD
As for B5, the binding entry in assay [3] is reported as “binds”.
